# Publication PMC12040169 (PLOS Biology, 2025)
# Some of the results follow.
# Tested on: T1, C. trachomatis L2/434/Bu expressing GFP (CTL2-GFP)
# T1 construct: L2/434/Bu GFP intracellular growth in HeLa cells
# Parameters: species or system HeLa; C. trachomatis total inclusion area by high-content imaging, normalised to DMSO
# Details: total inclusion area; 28.5 h, 10 µM; inhibitor
# In short: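 Post-fluorescence-read fixation, DNA staining with Hoechst and high-content imaging; GFP inclusion area and number per well, and nuclei counts, used as proxies for bacterial growth and host viability.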
row,SMILES,% of control remaining
1,Cc1cc(O)ccc1Nc1cc(-c2ccccc2N(C)C)ncn1 [CBK091051],59.4056
2,Cc1ccc(CN(Cc2cncn2C)CC2CCCO2)o1 (stereo not drawn) [CBK283272],97.8101
3,COc1ccc(-c2c(C)nn(-c3ccc(Cl)nn3)c2C)c(C(=O)O)c1 [CBK005774],88.8826
4,CCNC(=O)Nc1ncc(-c2ccc3c(c2)OCCCO3)c2cccnc12 [CBK070634],101.897
5,O=C(O)CCc1ccc(-c2cccs2)n1CCOc1ccccc1Cl [CBK267885],107.726
6,Nc1ccc(C(=O)Nc2ccc(Nc3cc(-c4cc(C(F)(F)F)cc(C(F)(F)F)c4)ncn3)cc2)cc1 [CBK091091],144.229
7,COc1ccc(N2CCN(c3cncc(-c4cccs4)n3)CC2)cc1OC [CBK065687],75.8841
8,COc1ccc(N)cc1OCCn1ccnc(N2CCNCC2)c1=O [CBK024211C],100.356
9,CCn1nnnc1NCc1ccc(OCc2ccc(F)cc2Cl)c(OC)c1 [CBK268224],101.804
10,Cc1ccc(SCCN2CCNCC2)cc1 [CBK266045G],120.071
11,COc1ccccc1CC(=O)N(Cc1nc(-c2cccc(C)c2)no1)C(C)C [CBK269345],77.5466
12,COC(=O)[C@H]1CN(C(=O)c2cn(C)nc2C)C[C@@H]1c1ccc(F)cc1 [CBK283720],107.252
13,CC(C)Nc1cncc(OC2CCN(C)C2)n1 (stereo not drawn) [CBK115598],96.2556
14,CN(C)CCN(C)Cc1ccc([N+](=O)[O-])cc1 [CBK261728],89.5346
15,O=[N+]([O-])c1cccc(-c2noc([C@@H]3C[C@@H](O)CN3C3CCOCC3)n2)c1 [CBK288847],107.427
16,O=S(=O)(c1ccc(-c2cncc(-c3ccc(O)cc3)n2)cc1F)N1CCOCC1 [CBK126903],110.795
17,S=C(NCCN1CCCCC1)NCc1ccco1 [CBK268171],125.308
18,COc1ccccc1-c1nnc(SCC(=O)N2CCN(c3ccccc3)CC2)[nH]1 [CBK270105],86.9001
19,CC(C)C1OC(NCc2ccccc2Cl)=NC1=O (stereo not drawn) [CBK070344],103.832
20,CC(C)CCc1c(O)nc(SCCN(C)C)[nH]c1=O [CBK263382],75.233
21,Clc1ncccc1OCCOc1ccccc1 [CBK003888],86.3849

row,SMILES,% of control remaining
1,COc1ccc(-c2c(C)nn3c(=O)c(Cc4ccccc4)c(C)[nH]c23)cc1 [CBK266951],96.7186
2,COc1ccccc1C(NC(=O)C1CCN(CCCN2C(=O)CC3CCCCC3C2=O)CC1)c1ccccn1 (stereo not drawn) [CBK147940],98.7364
3,CCc1c(C)nn(-c2ccccc2Br)c1-c1ccccc1 [CBK016757],92.4117
4,Cc1cc2c(cc1C)C(O)CC1(CCN(CC(=O)NC3CCCCC3)CC1)O2 (stereo not drawn) [CBK286399],67.6074
5,Cn1c(SCC(=O)O)nnc1-c1cc(Br)ccc1O [CBK269150],84.01
6,FC(F)(F)Oc1cccc(-c2cncc(NCc3ccncc3)n2)c1 [CBK065926],105.023
7,COCc1ccc(C(=O)N2CCC(c3cc4cnccc4[nH]3)CC2)cc1 [CBK283448],57.0062
8,COc1cc(C(F)(F)F)c(-c2ncn[nH]2)cn1 [CBK006362],5.035
9,Cc1cccn2c(=O)cc(CN3CCC(c4cnn(C)c4)CC3)nc12 [CBK305806],70.7074
10,Cc1cc(NC(=O)CN(C)C(=O)c2ccc(-n3cc(Br)cn3)cc2)no1 [CBK305575],23.4103
11,COc1ccc(CC(=O)Nc2nc(OCC(F)(F)F)cnc2-c2ccc(Cl)cc2Cl)cc1 [CBK145359],81.7833
12,O=c1c2cc(OCc3ccc(Cl)cc3)ccc2nc2n1CCC2 [CBK287977],98.7041
13,C/C(=C/C(=O)NCc1ccc(Cl)cc1)C(=O)O [CBK286954],85.7406
14,O=S(=O)(NC1CCCCC1Oc1ccccc1)c1ccc(Cl)cc1 (stereo not drawn) [CBK264697],96.9436
15,OCc1ccc(-c2cc(NCc3cccs3)n3nccc3n2)cc1 [CBK037046],102.695
16,O=C1CSC2(C(=O)N(Cc3cccc(C(F)(F)F)c3)c3ccccc32)N1c1ccccc1 (stereo not drawn) [CBK092392],82.3071
17,N#CCCCN1CCC(Oc2nccnc2OCc2cccc3ccccc23)CC1 [CBK161571],81.078
18,COc1ccc2[nH]cc(CCNC(=O)c3ccc([N+](=O)[O-])c(C)c3)c2c1 [CBK269426],28.1183
19,COC(=O)C#CCNc1cc(Cl)ccc1Cl [CBK025852],7.574
20,CC(C)OCC(O)Cn1c(NC2CCCCC2)nc2c1c(=O)[nH]c(=O)n2C (stereo not drawn) [CBK140893],81.7575
21,CC(=O)Nc1ccc(N/C=C(/C#N)c2nc(-c3ccc([N+](=O)[O-])cc3)cs2)cc1 [CBK262377],94.6087

row,SMILES,% of control remaining
1,CC(=O)Nc1ccc(OCCO)cc1 [CBK149724],93.2667
2,O=C(C1CCC1)N1CC(n2nc(-c3ccccc3)ccc2=O)C1 [CBK284624],87.6523
3,CN1C2CCC1CC(OC(=O)CCN1CCOCC1)C2 (stereo not drawn) [CBK261465],83.1105
4,Cc1nn(Cc2cccc(C(=O)O)c2)c(C)c1Br [CBK286950],101.682
5,O=c1c2cc(Cl)ccc2sc2ncccc12 [CBK008118],61.3255
6,CC(=O)N[C@H]1[C@H](Oc2ccc3ccccc3c2)O[C@@H]2COC(C)(C)O[C@H]2[C@@H]1O [CBK091644],89.3739
7,Cc1cccc(NS(=O)(=O)c2cc(C(=O)NCc3ccccn3)ccc2C)c1 [CBK268767],95.9744
8,CCn1nc(C)c(NC(=O)c2ncoc2-c2ccc(F)cc2)c1C [CBK282360],74.606
9,Cc1[nH]ncc1CN1CCCC(c2cc3ccccc3cn2)C1 (stereo not drawn) [CBK285029],60.7417
10,CN1CCC[C@H]1C(=O)Nc1ccc2ncccc2c1 [CBK159825],103.662
11,O=C(/C=C/c1ccc(Cl)cc1)Nc1nnn[nH]1 [CBK265468],114.308
12,CCOC(=O)c1nc(N)c2c(CC#N)nn(C)c2n1 [CBK023254],83.8354
13,COc1cccc(N2C(=O)CC(N3CCN(Cc4ccc5c(c4)OCO5)CC3)C2=O)c1 (stereo not drawn) [CBK074411],91.4361
14,NS(=O)(=O)c1ccc(NC(=S)Nc2cccc(C(=O)O)c2)cc1 [CBK266880],72.6366
15,Cn1cccc1C(=O)N[C@H]1C[C@@H]2C(=O)N[C@H]3CCN(C(=O)C4CCCC4)[C@@H]3C(=O)N2C1 [CBK289272],86.7542
16,Cc1csc(C(Cc2ccsc2)NC(=O)CCc2ccno2)n1 (stereo not drawn) [CBK285099],85.8117
17,CC1CN(Cc2cccc(CNc3nccnc3C#N)c2)CCO1 (stereo not drawn) [CBK304736],93.4495
18,c1cnc2[nH]c(C3CCNCC3)c(CN3CCCCCC3)c2c1 [CBK285057],99.9871
19,O=C(Nc1ccc(C(F)(F)F)cc1)N1CCC(n2c(=O)[nH]c3ccccc32)CC1 [CBK149847],79.2407
20,CC(=O)Nc1nnc(-c2ccc3c(c2)CCCC3)o1 [CBK287426],125.947
21,Nc1ncc(-c2ccncc2)nc1NCCCN1CCOCC1 [CBK063631],91.7686

row,SMILES,% of control remaining
1,O=c1c2cccnc2nc(SCCO)n1CC1CCCO1 (stereo not drawn) [CBK306113],77.3501
2,CC(C)CN1CCOC(CNC(=O)c2cc(O)nc3ccccc23)C1 (stereo not drawn) [CBK297931],117.712
3,Cc1cc(NC(=O)c2cc3ccccc3o2)nc2c1c(=O)oc1ccccc12 [CBK291256],102.866
4,CCN1CCOC(CNc2ncnc3c2CCC3)C1 (stereo not drawn) [CBK304811],40.5166
5,CC1CCc2noc(C3CCCN(C(=O)c4ccco4)C3)c2C1 (stereo not drawn) [CBK282865],92.3509
6,CN1CCN(CCCNC(=O)N2CCN(Cc3ccccc3)CC2)CC1 [CBK155621],107.966
7,CCOC(=O)C1CCN(S(=O)(=O)c2ccccc2C#N)CC1 [CBK051111],88.1269
8,O=C(CC1SC(NC2CCCCC2)=NC1=O)Nc1cc(Cl)ccc1Cl (stereo not drawn) [CBK059501],72.3758
9,COc1ccc(Cl)cc1NC(=O)CN(c1cccc(C(C)=O)c1)S(C)(=O)=O [CBK267835],104.488
10,Cn1nccc1CN1CCCC(COc2ccccc2F)C1 (stereo not drawn) [CBK281663],103.856
11,COc1ccc(Cn2c(=O)n(S(=O)(=O)c3ccc(C)cc3)c3ccccc32)cc1 [CBK106550],92.3593
12,O=C(Nc1ccon1)c1nn(-c2ncccn2)c2ccccc12 [CBK048513],97.5874
13,Cc1ccc(NC(=O)c2cnc3sccn3c2=O)cc1 [CBK287448],102.075
14,COc1ccc(C2(NC(=O)Cn3ccnc3)CCCCC2)cc1 [CBK283661],111.51
15,Cc1ccc(S(=O)(=O)CC(=O)N2CCCC3(CCN(C(=O)Cc4c[nH]c5ccccc45)C3)C2)cc1 (stereo not drawn) [CBK131595],88.0687
16,COc1ccc(OCCCN)c(C(=O)N2CCc3nc[nH]c(=O)c3C2)c1 [CBK307361],111.027
17,C[C@H](NC(=O)Cn1cc(-c2ccc(CN3CCCC3)cc2)nn1)c1ccc(Br)cc1 [CBK167692],71.2926
18,O=C(Nc1cccc2nsnc12)c1cc(Cl)ccc1NS(=O)(=O)c1cccc2nsnc12 [CBK261129],101.804
